From publication PMC10726135
The other results are listed elsewhere or left out. At the low end of the ranking, values are background and their order means little. Measured with an extract: partners may take part in the binding.

The sequences below were run against T1, HNF4alpha2 (COS-7 nuclear extract) (UniProt P41235) (assay: protein-binding microarray). Settings: COS-7 nuclear extract on double-stranded Agilent 4x180k PBM; binding buffer, salt, pH and temperature not given; high values mean tight binding; double strand, one strand shown; sequences stand for … in …GCCTAGGGAGATTAGAGTATCGGTCGA.
T1 sequence: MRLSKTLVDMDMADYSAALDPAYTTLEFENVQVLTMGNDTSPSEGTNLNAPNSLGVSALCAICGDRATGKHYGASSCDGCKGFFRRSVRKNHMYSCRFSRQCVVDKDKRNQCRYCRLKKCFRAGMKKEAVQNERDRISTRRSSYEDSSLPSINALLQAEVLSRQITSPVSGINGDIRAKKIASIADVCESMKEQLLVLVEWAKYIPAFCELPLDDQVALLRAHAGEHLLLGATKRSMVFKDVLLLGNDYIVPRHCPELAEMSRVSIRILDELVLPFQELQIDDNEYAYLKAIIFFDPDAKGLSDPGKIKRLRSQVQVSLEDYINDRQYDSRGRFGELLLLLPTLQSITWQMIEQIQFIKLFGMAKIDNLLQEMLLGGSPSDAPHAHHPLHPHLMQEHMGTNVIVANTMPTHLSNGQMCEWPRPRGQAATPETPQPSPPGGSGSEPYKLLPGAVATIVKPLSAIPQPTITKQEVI

Row | Sequence | binding signal (log2 normalized intensity)
1 | TACTGAAATGCCAAAAAAGAAGAAGTGAAA | -1.13
2 | AGTCCACCAACTCTGTGAATTCATTTTTTT | 0.272
3 | TTTGCTCTGTTGTGTCAAAGGTCACTTAGT | 5.48
4 | CTCTGGAGTGCAGGTGGGAGGGGTGGACTT | 3.01
5 | CGACTCAGTGGGGGGGGGGGGGGGGGTGTG | -1.14
6 | TCAGGGCAAAGACTCAAATCCAAGCTGGCT | -1.07
7 | GCATTTGCTCCCTGACTTGGTTTACAAGGT | 0.551
8 | CAGTCATTGCCATCTGCAAGAGAGAATAGA | -1.12
9 | TGCAGGTTCATGGGAGAGCACTTGGTGCCT | 0.818
10 | ACCCTCTGGGGCCGGGAGCAGGGAGCGAGA | -1.06
11 | AGTTGGAGGAACAGGTGGGGGTAAACATAG | -1.14
12 | GCAAGGCTAGAGATTCTCCCTGGGGCCTCT | -1.16
13 | TGGCATGATCCCTGACTCATAGCTCCAGAG | -1.17
14 | GATAAAATGAAATCGCCTGATTGGTCATAC | 0.363
15 | GTGACCTTTGACCTCTGGCCTTTGCAGTTA | 8.21
16 | TCAGATGAGACTTTGGACTTTTGAACTAAG | 6.42
17 | CAGAGGCTTCCTCTTTGGTGCAAAGGTCAG | 6.86
18 | TGAGAGAGAAAGAGACAGAGAGAGAGAGAG | -1.17
19 | GAAGTTTTGCAATATAGGCCAGGCATACCT | -1.1
20 | ACCCAGATAAGTTATCCTTGTTCTATGTTC | 0.342
21 | CTCGGGGATTAGCGATCATGGGTGACCCGT | 3.08
22 | TTCTACAGTGTTTACCGGATGAAAAGTGTT | 1.54
23 | GATAAAGGAACAGGCCCCAGGGACTTTGGC | 0.839
24 | TATGTGATCAGATGTGGACAATCATTGTGC | 1.53
25 | AGCCCTGGTTTATCTGTTGTCAAACCCACA | 0.184

Row | Sequence | binding signal (log2 normalized intensity)
26 | GCAAAGTTCACCAGGAAGCAAGACAATGCA | -1.16
27 | TTTGGAGCCGGTGTCAGTTTCCACTCTGCC | -1.04
28 | AATGTAAACATCAAGGAAGAGAACTCCCTA | -1.15
29 | AGGGACTTTGATCTTCTTACCCCTTTGCTG | 2.86
30 | TGCATCAAACAGCTTAGGGTTCAAACTCCA | 3.77
31 | ATCACTGAATCGAGGCTATTCTGTAACACA | -0.83
32 | ACACACACATACACACACACACACACACAT | -1.18
33 | GGCAAACATTTGCGCAAACATAAAGGCAAA | -1.15
34 | GAGAAAGAGACAGAGAGAGAGAGAGAATGA | -0.959
35 | TGTTCTTTACTTCCTTTTGTTCCTGCTCTA | 1.76
36 | CAAAGGTCATGTTTTCAAACAATGAGAGGC | 3.2
37 | ATCTTATCTAGTTTCCTAGCTCACTGATAA | -1.16
38 | AGGGGGAATGCCAACAGGTCAGGGAGTAGG | -1.13
39 | ACCTACAGCTGGGGCCACCTTTTCAGCTTC | -1.04
40 | GGAGGCTGGGGCCTCCTGGCTGGGCAGGCT | -1.29
41 | TGCCTAGTGGAAGGTATGGAGCTAAACAAT | -1.14
42 | TCCCTCCCCTGTGCAAACTTTTTCCTTTTC | 1.52
43 | CCTAGAGTTACAGTCACTCCCTATCAACCA | -1.13
44 | ACCTTGACCCAAGAAATAAAAACAGCTGGG | -1.07
45 | AGCTTCAGGGATCAAATCCTAACATGCTGC | -1.19
46 | GCGTTTTTCTTTGTACTGCTTCCAAAACAT | 0.116
47 | TAGAAGGCTTAAGATAAGGGACATCAACAA | -1.2
48 | TTCCATGCAGCAGCATCCAGCCCCAGGCTG | -1.18
49 | TCTGTACAAAACATTTGGTGTAAGCACTTG | 1.03
50 | GCTTATGCATGGGAGATCTTCAGTAAGAGG | -0.283

Row | Sequence | binding signal (log2 normalized intensity)
51 | CCTGGATAAGCCAGATAATTTGTGCAACAT | -1.04
52 | ACCCCTCCACTGGACAGCAGCTACATAAGG | 0.986
53 | AGGTGACTTGCCCAGACACACCTGCAATGG | -1.04
54 | TAGAAAAGAGTTAAAAAAAAAAAAAACTAT | -1.12
55 | ATTAATATATTCATAACACTTGTATGACCT | 3.17
56 | GAGTTAATGCTGGAGTTAAAGCTTTGAGGA | 0.404
57 | GAAACATCCACATGTGGGTCCAAAGAACAT | 3.1
58 | CACTGCAGGATTGGAGATCTGAACTCAAGC | 0.366
59 | TCGCCTCCACCTGCACCATTCTTGTCCTTT | 2.4
60 | TTTCCCTGGTCGACCTCCCCGTCACCCTCC | 4.15
61 | CACAGGATTTAAAGAATTCCAGACAATCTG | -1.18
62 | CTACCTTTGGACTTCTCATTACATGGGACA | 2.31
63 | CTGCTTCGGCCTTTGACCTCGTGATAACGA | 5.41
64 | GCAAGACTTTGGCCCTGCAGACTTTGCCTC | 3.39
65 | GATGAAGGTTATTCTTTCCCCTCCCTTCCA | 3.36
66 | CTGCCTTGGAGGTGAGGGTTACAGGTGGAC | 1.72
67 | AGTTCAGGAGGGAGGAGCATTTCACAGAAA | -1.07
68 | GCTGAGAGATTCCTCTGCACAATAAAACTT | -1.21
69 | AATCTCTCATCTGCCTTGTGATTTCCAAAA | 0.602
70 | TGGAAACAACTGTGCAGGTGACAGAATTCC | -1.06
71 | TTTCAAGAATCTAATCAGGCCTCCCTCCCT | 3.7
72 | GCAAAGGTTAGCAAGGGCCCCCACTAGAGA | 0.79
73 | AAAGAACCATGAGAGGGTTAAAAACCAGAA | -0.923
